Source: the supplement of paper PMC6089552
Out of some 3,200 compounds screened, about 300 (9.4%) showed activity. The list shows a part of the results, in another mix than the full data.

Tested on: A673/TR/shEF
Experiment: cell viability (LOESS-normalised, relative to median of negative controls) (log2 ratio); higher = more viable cells (less compound effect), active = hit call of the paper (over 3 MAD below the median)
Settings: treatment time: 72 h
In short: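 Viability of A673/TR/shEF Ewing sarcoma cells was determined by CellTiter-Glo luminescence. The cells, at 1,500 per well in 384-well plates, were grown with or without doxycycline from 24 h before compound addition to switch on EWS-FLI1 shRNA knockdown, then exposed for three days to library compounds at two or more concentrations or to DMSO controls. Signals were LOESS-corrected plate by plate, normalised to the negative-control median and log2-transformed.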

[1] = 0.25 µM, library screen: screen1, EWS-FLI1 expression: high (no doxycycline)
[2] = 0.25 µM, library screen: screen1, EWS-FLI1 expression: low (doxycycline-induced shRNA knockdown)
[3] = 0.25 µM, library screen: screen2, EWS-FLI1 expression: high (no doxycycline)
[4] = 0.25 µM, library screen: screen2, EWS-FLI1 expression: low (doxycycline-induced shRNA knockdown)
[5] = 2.5 µM, library screen: screen1, EWS-FLI1 expression: high (no doxycycline)
[6] = 2.5 µM, library screen: screen1, EWS-FLI1 expression: low (doxycycline-induced shRNA knockdown)
[7] = 2.5 µM, library screen: screen2, EWS-FLI1 expression: high (no doxycycline)
[8] = 2.5 µM, library screen: screen2, EWS-FLI1 expression: low (doxycycline-induced shRNA knockdown)
[9] = 0.103 µM, library screen: screen3, EWS-FLI1 expression: high (no doxycycline)
[10] = 0.103 µM, library screen: screen3, EWS-FLI1 expression: low (doxycycline-induced shRNA knockdown)
[11] = 0.308 µM, library screen: screen3, EWS-FLI1 expression: high (no doxycycline)
[12] = 0.308 µM, library screen: screen3, EWS-FLI1 expression: low (doxycycline-induced shRNA knockdown)
[13] = 0.926 µM, library screen: screen3, EWS-FLI1 expression: high (no doxycycline)
[14] = 0.926 µM, library screen: screen3, EWS-FLI1 expression: low (doxycycline-induced shRNA knockdown)
[15] = 2.8 µM, library screen: screen3, EWS-FLI1 expression: high (no doxycycline)
[16] = 2.8 µM, library screen: screen3, EWS-FLI1 expression: low (doxycycline-induced shRNA knockdown)
[17] = 8.3 µM, library screen: screen3, EWS-FLI1 expression: high (no doxycycline)
[18] = 8.3 µM, library screen: screen3, EWS-FLI1 expression: low (doxycycline-induced shRNA knockdown)
[19] = 25 µM, library screen: screen3, EWS-FLI1 expression: high (no doxycycline)
[20] = 25 µM, library screen: screen3, EWS-FLI1 expression: low (doxycycline-induced shRNA knockdown)

Measured: cell viability (log2)

N[C@@H](C(=O)N[C@@H]1C(=O)N2C(C(=O)O)=C(Cl)CS[C@H]12)c1ccccc1
inactive: [1] 0.116 | [2] -0.0458 | [3] 0.0336 | [4] 0.0653 | [5] 0.203 | [6] 0.114 | [7] 0.0911 | [8] 0.104

N#C/C(=C\c1ccc(O)c(O)c1)C(=O)NCCCNC(=O)/C(C#N)=C/c1ccc(O)c(O)c1
inactive: [3] 0.153 | [4] 0.132 | [7] 0.199 | [8] 0.0575

O=C(OCc1ccccc1)c1ccccc1
inactive: [1] 0.0522 | [2] 0.0983 | [5] 0.0811 | [6] 0.112

OC(CCN1CCCCC1)(c1ccccc1)C1CCCCC1 (centres undefined)
inactive: [1] 0.0577 | [2] 0.0688 | [3] 0.222 | [4] 0.088 | [5] 0.11 | [6] 0.0848 | [7] 0.239 | [8] 0.00127

COc1ccc(OC)c(CN2CCN(Cc3c[nH]c4ccccc34)CC2)c1
inactive: [1] 0.113 | [2] 0.0685 | [5] 0.072 | [6] 0.0923

O=C1CC(c2ccc(O)cc2)Oc2ccccc21 (centres undefined)
inactive: [1] 0.0599 | [2] -0.000865 | [5] 0.091 | [6] 0.0844

Cc1cc(=O)c2c(O)c3c(cc2o1)OC(C)(C)CC3
inactive: [1] -0.0169 | [2] 0.014 | [5] 0.0268 | [6] 0.147

Brc1c(NC2=NCCN2)ccc2nccnc12
inactive: [3] 0.141 | [4] 0.057 | [7] 0.149 | [8] -0.0709

CN(C)CCOC(=O)COc1ccc(Cl)cc1
inactive: [1] 0.0859 | [2] 0.0772 | [3] 0.194 | [4] 0.101 | [5] 0.0874 | [6] 0.0722 | [7] 0.119 | [8] 0.0469

C[C@H]1C[C@@H]2[C@H]([C@@H](O)C[C@@]3(C)[C@H]2CC[C@]3(O)C(=O)COC(=O)CCC(=O)O)[C@@]2(C)C=CC(=O)C=C12
inactive: [1] 0.203 | [2] 0.147 | [5] 0.205 | [6] -0.0324

Nc1cc(-c2ccncc2)c[nH]c1=O
inactive: [1] 0.126 | [2] 0.165 | [5] 0.172 | [6] 0.151

Nc1c(Br)cc(Br)cc1CNC1CCC(O)CC1 (centres undefined)
inactive: [1] 0.0989 | [2] 0.134 | [5] 0.12 | [6] 0.146

CC(=O)OC1CCC2(O)CC1(C)CCC1C2CC1(C)C (centres undefined)
inactive: [1] 0.146 | [2] -0.0214 | [5] 0.0446 | [6] 0.0774

CN(CCOc1ccc(CC2SC(=O)NC2=O)cc1)c1ccccn1 (centres undefined)
inactive: [9] 0.07 | [10] 0.0896 | [1] 0.0497 | [2] 0.0402 | [11] 0.0792 | [12] 0.0391 | [13] 0.124 | [14] 0.0651 | [5] 0.0946 | [6] 0.0673 | [15] 0.0659 | [16] 0.039 | [17] 0.0712 | [18] 0.0703 | [19] 0.0482 | [20] 0.0912

O=C(O)c1cc(=O)c2ccc(Cl)cc2[nH]1
inactive: [1] 0.0619 | [2] 0.111 | [3] 0.252 | [4] 0.173 | [5] 0.0566 | [6] 0.0557 | [7] 0.181 | [8] 0.177

NCc1ccc(S(N)(=O)=O)cc1
inactive: [1] 0.0629 | [2] 0.0602 | [5] 0.0995 | [6] 0.0341

CC/C(=C(\c1ccccc1)c1ccc(OCCN(C)C)cc1)c1ccccc1
inactive: 0.025 µM, library screen: screen2, EWS-FLI1 expression: high (no doxycycline) 0.101 | 0.025 µM, library screen: screen2, EWS-FLI1 expression: low (doxycycline-induced shRNA knockdown) 0.036 | [9] -0.0663 | [10] 0.0362 | [1] 0.0407 | [2] 0.116 | [3] 0.141 | [4] 0.0605 | [11] 0.0614 | [12] 0.0373 | [13] 0.139 | [14] 0.0387 | [5] 0.148 | [6] 0.145 | [7] 0.182 | [8] 0.118 | [15] 0.102 | [16] 0.0193 | [17] 0.0588 | [18] 0.0342 | 25 µM, library screen: screen2, EWS-FLI1 expression: high (no doxycycline) 0.0567 | 25 µM, library screen: screen2, EWS-FLI1 expression: low (doxycycline-induced shRNA knockdown) 0.124 | [19] 0.0314 | [20] 0.0332

C#C[C@]1(O)CC[C@H]2[C@@H]3CCC4=C(CCC(=O)C4)[C@H]3CC[C@@]21C
inactive: [1] 0.0211 | [2] -0.000537 | [5] 0.0513 | [6] 0.0695

COc1cc(OC)c(-c2c(OC)cc(OC)cc2OC)c(OC)c1
inactive: [1] 0.14 | [2] 0.0211 | [5] 0.176 | [6] 0.0686
